PubChem BioAssay AID588855 (National Center for Advancing Translational Sciences (NCATS), 2011)
Out of some 410,000 compounds screened, about 5,000 (1.2%) were called active. This list was built around the results that the source calls inconclusive (neither active nor inactive); the mix of calls is not that of the screen. The call rests on the fitted dose curve; in most records, active means well fitted inhibition curve with a large enough effect; inconclusive means small, poorly fitted or top-dose-only effect; inactive means no such curve, though single readings can be large or run the other way. Potencies of inconclusive entries are doubtful fits and often do not repeat.

assay: qHTS for Inhibitors of TGF-b; conditions: HepG2 CAGA-GFP TGF-b/SMAD3 reporter, GFP fluorescence, 18 h, TGF-beta stimulated, 500 pg/mL final; series mostly up to 46.1 µM; further: nearly all actives have a fitted effect of over 65% in size
Procedure, shortened: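 Per well, imaged GFP fluorescence of HEPG2 CAGA-GFP cells gives the signal; cells get compound, then TGF-beta (500 pg/mL final), 18 h at 37 degrees C; %Activity versus -TGF-beta and +DMSO controls.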
Potency means the concentration at half of the fitted maximal effect; tags describe the fitted curve by direction and shape.

With `COc1ccc(C(=O)N2CCCC(C(=O)O)C2)c2ccccc12` (stereo not drawn) as the compound, how does the Potency read?
The Potency was “inactive”.

With `Cc1nc([N+](=O)[O-])c(Br)n1CC(=O)c1cccc([N+](=O)[O-])c1` as the compound, how does the Potency read?
Its Potency is “inactive”.

For `COc1cccc(-c2cc(NC=O)c3ncc(-c4ccc(OC)c(OC)c4)n3c2)c1`, which Potency is on record?
The Potency was inconclusive: 17.8 µM [inhibitor, single point].

With `Cc1ccc(S(=O)(=O)N(CC(=O)N2CCc3ccccc3C2)c2ccc(C)c(C)c2)cc1` as the compound, how does the Potency read?
Its Potency is inconclusive: 35.5 µM [inhibitor, single point].

For `CN(CC(=O)NCc1ccc2c(c1)OCO2)S(=O)(=O)c1ccc(Br)s1`, which Potency is on record?
The Potency was inconclusive: 2.82 µM [inhibitor, single point].

Which Potency does the source give for `Cc1n[nH]c(=O)nc1N/N=C/c1ccc(O)c([N+](=O)[O-])c1` here?
Its Potency is “inactive”.

With `COc1ccc(NC(=O)CSc2nnc3scc(-c4ccc(Cl)cc4)n23)cc1` as the compound, how does the Potency read?
Its Potency is “inactive”.

Which Potency does the source give for `CCCCN(C(=O)CCCc1nc2ccccc2s1)c1c(N)n(CC(C)C)c(=O)[nH]c1=O` here?
Its Potency is “inactive”.

For `O=C(Nc1nnc(-c2ccc3c(c2)CCCC3)o1)c1ccc(Cl)cc1Cl`, which Potency is on record?
The Potency was inconclusive: 10 µM [inhibitor, partial curve].

Which Potency does the source give for `COc1cccc2c1[C@@H]1CN(CCCCn3c(=O)[nH]c4c(sc5ncc(-c6ccccc6)nc54)c3=O)C[C@@H]1CO2` here?
The Potency was active: 12.6 µM.

For `O=C(N/N=C/c1ccc(Cl)cc1)c1ccc2c(c1)OCO2`, which Potency is on record?
Its Potency is inconclusive: 35.5 µM [inhibitor, single point].

With `O=C(Cn1nnc2ccccc2c1=O)NCc1ccco1` as the compound, how does the Potency read?
Its Potency is inconclusive: 3.16 µM [inhibitor, single point].

For `CC1=NN(C(=O)c2ccc(Br)cc2)C(O)(C(F)(F)OC(F)(F)F)C1` (stereo not drawn), which Potency is on record?
The Potency was active: 15.8 µM.

For `COc1ccc(Cn2c(N)c(C#N)c3nc4ccccc4nc32)cc1`, which Potency is on record?
Its Potency is inconclusive: 14.1 µM [inhibitor, single point].

Which Potency does the source give for `CCC(CC)C(=O)OCC(=O)NC12CC3CC(CC(C3)C1)C2` here?
The Potency was “inactive”.

Which Potency does the source give for `O=C(CCNC(=O)c1ccc(Cl)cc1)Nc1cccc(S(=O)(=O)N2CCCCCC2)c1` here?
The Potency was “inactive”.

For `CCOC(=O)/C(=N/Nc1ccc(OC)cc1)N1CCCc2ccccc21`, which Potency is on record?
Its Potency is “inactive”.

For `COc1ccc(OCc2n[nH]c(=S)o2)cc1`, which Potency is on record?
Its Potency is “inactive”.

With `CCCSC1=C(C#N)C2(CCCCC2)C(C#N)=C(N)N1` as the compound, how does the Potency read?
Its Potency is inconclusive: 35.5 µM [inhibitor, single point].

Which Potency does the source give for `COCCCNC(=O)CCc1nc2cccnc2n1Cc1ccc(OC)cc1` here?
The Potency was inconclusive: 6.31 µM [inhibitor, single point].

For `Cc1ccc(OCc2cc(C(=O)NC(C)Cc3cnccn3)no2)cc1C` (stereo not drawn), which Potency is on record?
Its Potency is “inactive”.

Which Potency does the source give for `CCOc1ccc(C2C(C#N)=C(N)Oc3cc(C)n(Cc4ccco4)c(=O)c32)cc1OC` (stereo not drawn) here?
The Potency was “inactive”.

With `CC(=O)c1ccc(NC(=O)C2=CC(c3cccs3)=NS(=O)(=O)N2C)cc1` as the compound, how does the Potency read?
Its Potency is inconclusive: 35.5 µM [inhibitor, partial curve, poor fit].

With `O=c1c2ccccc2nc(/C=C/c2ccc(O)cc2)n1CCc1ccccc1` as the compound, how does the Potency read?
The Potency was inconclusive: 35.5 µM [inhibitor, single point].

With `Cc1ccc(C(=O)OCC(=O)Nc2ccc(C)c(S(=O)(=O)N3CCCCC3)c2)c(O)c1` as the compound, how does the Potency read?
Its Potency is inconclusive: 6.31 µM [inhibitor, single point].

With `Cc1c(CCCl)c(Cl)n2c(nc3ccccc32)c1C#N` as the compound, how does the Potency read?
Its Potency is inconclusive: 3.98 µM [inhibitor, partial curve, poor fit].

With `O=[N+]([O-])c1ccc(CSc2nnc(SCc3ccccc3)s2)cc1` as the compound, how does the Potency read?
Its Potency is inconclusive: 35.5 µM [inhibitor, single point].

For `O=C(Nc1nonc1NC(=O)c1cccs1)c1cccs1`, which Potency is on record?
Its Potency is inconclusive: 11.2 µM [inhibitor, partial curve, poor fit].

With `Cc1cc(C)n(-c2nnc(Nc3ccc(C(C)C)cc3)c3ccccc23)n1` as the compound, how does the Potency read?
The Potency was inconclusive: 10 µM [inhibitor, partial curve].

For `CC[C@@]12C(=O)N(c3ccc(OC)cc3)C(=O)N1[C@H](c1ccc(Cl)cc1)[C@@H]1C(=O)N(C3CCCCC3)C(=O)[C@@H]12`, which Potency is on record?
The Potency was inconclusive: 10 µM [inhibitor, partial curve].

For `Cc1cccc(-c2cc(NC=O)c3ncc(-c4cccc(C(=O)N(C)C)c4)n3c2)c1`, which Potency is on record?
The Potency was inconclusive: 20 µM [inhibitor, single point].

With `CN(CC(=O)Nc1ccc(S(=O)(=O)N2CCCC2)cc1)Cc1cccc(Cl)c1Cl` as the compound, how does the Potency read?
The Potency was inconclusive: 15.8 µM [inhibitor, single point].

Which Potency does the source give for `COc1ccc(C2=NS(=O)(=O)N(C)C(C(=O)Nc3ccc(F)cc3F)=C2)cc1` here?
Its Potency is inconclusive: 35.5 µM [inhibitor, single point].

For `O=C1C=C(NCc2ccc(Cl)cc2)CC(c2ccco2)C1` (stereo not drawn), which Potency is on record?
The Potency was “inactive”.

With `COc1cc(C2c3c(oc4ccccc4c3=O)C(=O)N2c2nc(C)c(C)s2)ccc1O` (stereo not drawn) as the compound, how does the Potency read?
Its Potency is “inactive”.

For `C/C(=N\Nc1cccc2cccnc12)c1ccccn1`, which Potency is on record?
The Potency was inconclusive: 14.1 µM [inhibitor, partial curve].

Which Potency does the source give for `Cc1ccc2nc(N/C(=N/S(=O)(=O)c3cccs3)c3ccccc3Cl)sc2c1` here?
The Potency was inconclusive: 25.1 µM [inhibitor, single point].

For `Cc1cc(C(=O)CN2C(=O)NC3(CCCCC3)C2=O)c(C)n1Cc1ccc2c(c1)OCO2`, which Potency is on record?
Its Potency is inconclusive: 3.16 µM [inhibitor, partial curve, poor fit].

Which Potency does the source give for `O=C(O)C1C2C=CC(C2)C1C(=O)N1CCc2ccccc21` (stereo not drawn) here?
The Potency was “inactive”.

For `CCOc1ccccc1N(C(=O)c1snc(C(N)=O)c1N)C(C(=O)NCc1ccccc1)c1ccc(O)cc1` (stereo not drawn), which Potency is on record?
The Potency was “inactive”.

Which Potency does the source give for `COc1ccc(NC(=O)CC2CC3CCC2C3)cn1` (stereo not drawn) here?
Its Potency is “inactive”.

For `CCOC(=O)c1nc(Nc2ccc(C)cc2)c2ccccc2n1`, which Potency is on record?
Its Potency is “inactive”.

Which Potency does the source give for `Cc1ccc(Cl)cc1NC(=O)C(NS(=O)(=O)c1cccc2nsnc12)c1ccccc1` (stereo not drawn) here?
The Potency was inconclusive: 8.91 µM [inhibitor, partial curve, poor fit].

For `CC1(C(=O)NCc2cccc(C(F)(F)F)c2)CCN1Cc1ccc(-c2ccccc2)o1` (stereo not drawn), which Potency is on record?
The Potency was inconclusive: 22.4 µM [inhibitor, single point].

Which Potency does the source give for `O=C(Cc1ccc(Br)cc1)Nc1ccccc1Sc1ccccc1` here?
Its Potency is “inactive”.

With `COc1ccc(OC2C(=O)N(c3cc(C)ccc3C)C2c2ccc(OC)c(OC)c2)cc1` (stereo not drawn) as the compound, how does the Potency read?
Its Potency is inconclusive: 35.5 µM [inhibitor, single point].

Which Potency does the source give for `OC(COc1cccc2ccccc12)CN1CCN(c2ccccn2)CC1` (stereo not drawn) here?
Its Potency is inconclusive: 35.5 µM [inhibitor, single point].

With `CC(=O)c1sc(NC(=O)CCN2C(=O)C3CC=CCC3C2=O)nc1-c1ccccc1` (stereo not drawn) as the compound, how does the Potency read?
Its Potency is inconclusive: 35.5 µM [inhibitor, single point].

For `COc1ccc2nc(NC(=O)c3nc(S(=O)(=O)Cc4ccccc4F)ncc3Cl)sc2c1`, which Potency is on record?
Its Potency is inconclusive: 10 µM [inhibitor, partial curve, poor fit].

For `CCCCN(C(=O)c1ccccc1Cl)C(CC(C)C)c1nc2ccccc2[nH]1` (stereo not drawn), which Potency is on record?
Its Potency is inconclusive: 17.8 µM [inhibitor, single point].

Which Potency does the source give for `C=CC[C@@H]1Cc2c(Br)ccc(Br)c2[C@@H](CC=C)N1` here?
Its Potency is “inactive”.

Which Potency does the source give for `CCOc1ccc2[nH]cc(C(=O)NCCc3ccccc3)c(=O)c2c1` here?
The Potency was inconclusive: 35.5 µM [inhibitor, single point].

For `COCCn1nnnc1C(C(C)C)N(Cc1ccccc1)Cc1cc2cc(OC)ccc2[nH]c1=O` (stereo not drawn), which Potency is on record?
Its Potency is inconclusive: 35.5 µM [inhibitor, single point].

Which Potency does the source give for `CCc1ccc(C=C2SC(=S)N(CCCC(=O)Nc3ccc(C(=O)O)cc3)C2=O)cc1` here?
The Potency was “inactive”.

For `N/C(=N\OC(=O)C12CC3CC(CC(C3)C1)C2)c1cccnc1`, which Potency is on record?
Its Potency is inconclusive: 3.16 µM [inhibitor, single point].

For `Cc1ccc(SCCNC(=S)Nc2ccccc2)cc1`, which Potency is on record?
Its Potency is inconclusive: 15.8 µM [inhibitor, single point].

For `Cc1cc2oc(=O)cc(CN3CCN(S(=O)(=O)/C=C/c4ccccc4)CC3)c2cc1C`, which Potency is on record?
The Potency was “inactive”.

For `O=C(NC1CCCCC1)c1ccc2c(c1)sc1nc(-c3ccc(F)cc3)cn12`, which Potency is on record?
Its Potency is “inactive”.

Which Potency does the source give for `COc1ccc(CC(N)c2csc(NC(=O)c3ccc(F)cc3)n2)cc1` (stereo not drawn) here?
The Potency was inconclusive: 28.2 µM [inhibitor, single point].

With `Cc1ccc(-c2noc(CNC(=O)COc3cc(C)c(Br)c(C)c3)n2)cc1` as the compound, how does the Potency read?
The Potency was inconclusive: 35.5 µM [inhibitor, single point].

Which Potency does the source give for `Cc1cccc(N2CCN(S(=O)(=O)c3c(C)[nH]c(C)c3C(=O)N3CCCCC3)CC2)c1C` here?
Its Potency is “inactive”.

Which Potency does the source give for `Cc1ccc(Nc2cc(C)nc(-n3nc(C)cc3C)n2)cc1` here?
Its Potency is inconclusive: 20 µM [inhibitor, partial curve, poor fit].

Which Potency does the source give for `CN(C)S(=O)(=O)Oc1cccc(C(=O)Nc2ccc(Cl)c(Cl)c2)c1` here?
Its Potency is inconclusive: 22.4 µM [inhibitor, single point].

Which Potency does the source give for `Cc1ccc(CNC(=O)CCc2c(C)nc3c(c(C)nn3-c3ccc(C)cc3)c2C)cc1` here?
The Potency was “inactive”.

With `O=C(c1cnn2c1NC(c1ccco1)CC2C(F)(F)F)N1CCN(c2cccc(Cl)c2)CC1` (stereo not drawn) as the compound, how does the Potency read?
Its Potency is inconclusive: 35.5 µM [inhibitor, single point].

For `Cc1c(C(=O)O)oc2ccc(S(=O)(=O)NC3CCCCCCC3)cc12`, which Potency is on record?
Its Potency is “inactive”.

For `Nc1ncnc2c1ncn2[C@@H]1O[C@H](C(=O)Nc2cc(C(F)(F)F)cc(C(F)(F)F)c2)[C@@H](O)[C@H]1O`, which Potency is on record?
Its Potency is inconclusive: 28.2 µM [inhibitor, single point].

For `O=C1C=C(c2ccc(Oc3ccccc3)cc2)C[C@@H](c2ccc(F)cc2)C1`, which Potency is on record?
Its Potency is inconclusive: 12.6 µM [inhibitor, single point].
